4 molecules from publication PMC7847670 can be followed below.

Chains of the proteins cited; added tags and fusions are not shown. Lines headed by an entry give the natural chain unless they say otherwise; changes in a name come on top.
UniProt Q96SB3: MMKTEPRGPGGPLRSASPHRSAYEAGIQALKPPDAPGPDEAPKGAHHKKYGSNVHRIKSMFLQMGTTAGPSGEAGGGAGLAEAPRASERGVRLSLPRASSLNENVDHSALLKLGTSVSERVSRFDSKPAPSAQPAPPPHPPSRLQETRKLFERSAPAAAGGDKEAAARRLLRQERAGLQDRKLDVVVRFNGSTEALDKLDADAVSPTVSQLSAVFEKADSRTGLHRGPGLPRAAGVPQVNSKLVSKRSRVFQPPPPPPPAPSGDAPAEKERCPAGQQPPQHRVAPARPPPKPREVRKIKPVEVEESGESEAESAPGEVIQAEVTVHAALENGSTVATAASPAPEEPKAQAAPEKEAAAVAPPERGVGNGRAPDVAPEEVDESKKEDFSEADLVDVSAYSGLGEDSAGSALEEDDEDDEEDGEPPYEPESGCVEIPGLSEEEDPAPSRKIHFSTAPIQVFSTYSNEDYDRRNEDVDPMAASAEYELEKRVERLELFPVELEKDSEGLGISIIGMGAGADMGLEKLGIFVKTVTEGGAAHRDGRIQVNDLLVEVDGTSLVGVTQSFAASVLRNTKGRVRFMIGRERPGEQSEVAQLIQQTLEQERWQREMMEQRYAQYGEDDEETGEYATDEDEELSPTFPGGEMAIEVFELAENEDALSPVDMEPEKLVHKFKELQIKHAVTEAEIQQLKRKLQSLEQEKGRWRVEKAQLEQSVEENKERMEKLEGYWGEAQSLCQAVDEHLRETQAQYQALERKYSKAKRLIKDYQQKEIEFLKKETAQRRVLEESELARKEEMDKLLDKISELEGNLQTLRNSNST

No constants are given. Whether binding was seen depends on the method and setting. Binding seen in cells or lysates may run through a third protein. Some binding calls cover weakened binding; strength is not graded here.

Assay [1] has as its target SPN-A566V (human) (UniProt Q96SB3). Description: co-IP; anti-SPN (or anti-IgG control) on protein A Sepharose, 1 mg of T47D or MDA-MB-468 cell extract overnight, washed with PBS-BSA and IGEPAL 0.2%; blots for PP1α, PP1β, PP1γ, P-pRB, P-p107, P-p130.
The target of assay [2] is SPINOPHILIN (wild-type, endogenous) (human (endogenous in T47D and MDA-MB-468)) (UniProt Q96SB3). The assay is described as above.
For assay [3], the target named is SPINOPHILIN (wild-type, endogenous) (human (endogenous in T47D and MDA-MB-468)), Q96SB3. The description is as above. The following applies: remark: other sources report otherwise.
For assay [4], the target named is SPN-A566V (human) (UniProt Q96SB3). The experiment in a line: co-IP; Figure S5 (total pRB); cells, precipitating antibody and conditions not told in the text shown.
Assay [5] concerns the target SPINOPHILIN (wild-type, endogenous) (human (endogenous in T47D and MDA-MB-468)) (UniProt Q96SB3). The assay is described as above.

B1: P-p107 (Ser975) (protein, UniProt P28749 1-1068)
chain: MFEDKPHAEGAAVVAAAGEALQALCQELNLDEGSAAEALDDFTAIRGNYSLEGEVTHWLACSLYVACRKSIIPTVGKGIMEGNCVSLTRILRSAKLSLIQFFSKMKKWMDMSNLPQEFRERIERLERNFEVSTVIFKKYEPIFLDIFQNPYEEPPKLPRSRKQRRIPCSVKDLFNFCWTLFVYTKGNFRMIGDDLVNSYHLLLCCLDLIFANAIMCPNRQDLLNPSFKGLPSDFHTADFTASEEPPCIIAVLCELHDGLLVEAKGIKEHYFKPYISKLFDRKILKGECLLDLSSFTDNSKAVNKEYEEYVLTVGDFDERIFLGADAEEEIGTPRKFTRDTPLGKLTAQANVEYNLQQHFEKKRSFAPSTPLTGRRYLREKEAVITPVASATQSVSRLQSIVAGLKNAPSDQLINIFESCVRNPVENIMKILKGIGETFCQHYTQSTDEQPGSHIDFAVNRLKLAEILYYKILETVMVQETRRLHGMDMSVLLEQDIFHRSLMACCLEIVLFAYSSPRTFPWIIEVLNLQPFYFYKVIEVVIRSEEGLSRDMVKHLNSIEEQILESLAWSHDSALWEALQVSANKVPTCEEVIFPNNFETGNGGNVQGHLPLMPMSPLMHPRVKEVRTDSGSLRRDMQPLSPISVHERYSSPTAGSAKRRLFGEDPPKEMLMDKIITEGTKLKIAPSSSITAENVSILPGQTLLTMATAPVTGTTGHKVTIPLHGVANDAGEITLIPLSMNTNQESKVKSPVSLTAHSLIGASPKQTNLTKAQEVHSTGINRPKRTGSLALFYRKVYHLASVRLRDLCLKLDVSNELRRKIWTCFEFTLVHCPDLMKDRHLDQLLLCAFYIMAKVTKEERTFQEIMKSYRNQPQANSHVYRSVLLKSIPREVVAYNKNINDDFEMIDCDLEDATKTPDCSSGPVKEERGDLIKFYNTIYVGRVKSFALKYDLANQDHMMDAPPLSPFPHIKQQPGSPRRISQQHSIYISPHKNGSGLTPRSALLYKFNGSPSKSLKDINNMIRQGEQRTKKRVIAIDSDAESPAKRVCQENDDVLLKRLQDVVSERANH
modifications: phosphoserine at 975
For the molecule B1, the binding result with SPN-A566V (human) [1] was “binds weakly”; in assay [2] it was “binds”.

B2: PP1β, P62140 1-327 (enzyme)
chain: MADGELNVDSLITRLLEVRGCRPGKIVQMTEAEVRGLCIKSREIFLSQPILLELEAPLKICGDIHGQYTDLLRLFEYGGFPPEANYLFLGDYVDRGKQSLETICLLLAYKIKYPENFFLLRGNHECASINRIYGFYDECKRRFNIKLWKTFTDCFNCLPIAAIVDEKIFCCHGGLSPDLQSMEQIRRIMRPTDVPDTGLLCDLLWSDPDKDVQGWGENDRGVSFTFGADVVSKFLNRHDLDLICRAHQVVEDGYEFFAKRQLVTLFSAPNYCGEFDNAGGMMSVDETLMCSFQILKPSEKKAKYQYGGLNSGRPVTPPRTANPPKKR
Turning to B2, the binding entry in assay [3] is recorded as “no binding”.

B3: total pRB (protein, UniProt P06400 1-928)
chain: MPPKTPRKTAATAAAAAAEPPAPPPPPPPEEDPEQDSGPEDLPLVRLEFEETEEPDFTALCQKLKIPDHVRERAWLTWEKVSSVDGVLGGYIQKKKELWGICIFIAAVDLDEMSFTFTELQKNIEISVHKFFNLLKEIDTSTKVDNAMSRLLKKYDVLFALFSKLERTCELIYLTQPSSSISTEINSALVLKVSWITFLLAKGEVLQMEDDLVISFQLMLCVLDYFIKLSPPMLLKEPYKTAVIPINGSPRTPRRGQNRSARIAKQLENDTRIIEVLCKEHECNIDEVKNVYFKNFIPFMNSLGLVTSNGLPEVENLSKRYEEIYLKNKDLDARLFLDHDKTLQTDSIDSFETQRTPRKSNLDEEVNVIPPHTPVRTVMNTIQQLMMILNSASDQPSENLISYFNNCTVNPKESILKRVKDIGYIFKEKFAKAVGQGCVEIGSQRYKLGVRLYYRVMESMLKSEEERLSIQNFSKLLNDNIFHMSLLACALEVVMATYSRSTSQNLDSGTDLSFPWILNVLNLKAFDFYKVIESFIKAEGNLTREMIKHLERCEHRIMESLAWLSDSPLFDLIKQSKDREGPTDHLESACPLNLPLQNNHTAADMYLSPVRSPKKKGSTTRVNSTANAETQATSAFQTQKPLKSTSLSLFYKKVYRLAYLRLNTLCERLLSEHPELEHIIWTLFQHTLQNEYELMRDRHLDQIMMCSMYGICKVKNIDLKFKIIVTAYKDLPHAVQETFKRVLIKEEEYDSIIVFYNSVFMQRLKTNILQYASTRPPTLSPIPHIPRSPYKFPSSPLRIPGGNIYISPLKSPYKISEGLPTPTKMTPRSRILVSIGESFGTSEKFQKINQMVCNSDRVLKRSAEGSNPPKPLKKLRFDIEGSDEADGSKHLPGESKFQQKLAEMTSTRTRMQKQKMNDSMDTSNKEEK
In the case of B3, the binding entry (with SPN-A566V (human) [4]; in assay [5]) was “binds” each time.

B4: P-pRB (Ser807/811) (protein, UniProt P06400 1-928)
chain: B3 chain
modifications: phosphoserine at 807/811
For the molecule B4, the binding entry (in the assay with SPN-A566V (human) [1]; in assay [2]) was “binds” in each case.
